Reference: PubChem BioAssay AID1345082 (National Center for Advancing Translational Sciences (NCATS), 2018)
The whole screen tested about 94,000 compounds, of which about 4,000 (4.3%) were called active. This list was built around the results that the source calls inconclusive (neither active nor inactive); the mix of calls is not that of the screen. The call rests on the fitted dose curve; in most records, active means well fitted inhibition curve with a large enough effect; inconclusive means small, poorly fitted or top-dose-only effect; inactive means no such curve, though single readings can be large or run the other way. Potencies of inconclusive entries are doubtful fits and often do not repeat.

assay: Cytotoxic Profiling in NIH 3T3 Cell Line of Diverse Libraries Using Quantitative High-Throughput Screening; settings: NIH 3T3 viability, CellTiter-Glo ATP luminescence, 48-72 h; activity change, negative = cytotoxicity: at 96.7 µM (top of the series) unless noted; series mostly up to 96.7 µM; further: nearly all actives have a fitted effect of over 55% in size
How it was run: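 Cytotoxicity is measured as loss of cellular ATP: NIH 3T3 cells (400/well) are exposed to compound for 48 or 72 hr at 37 °C, then CellTiter-Glo luminescence is imaged after 10 min at room temperature.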
On the % scale 0 is the no-effect control and ±100 the full control effect; potency means the concentration at half of the fitted maximal effect; tags describe the fitted curve by direction and shape.

Row | SMILES | activity change, negative = cytotoxicity | Potency | outcome
1 | CCCCNCc1ccc(OCC(O)CN2CCSCC2)c(OC)c1 (stereo not given) | inactive: -23.5% |  | 
2 | Cc1noc(C)c1[S+](=O)([O-])NC1CCCN(c2ccc3nnc(-c4ccccc4)n3n2)C1 (stereo not given) |  | inconclusive: 50.1 µM [inhibitor, partial curve, poor fit] | 
3 | O=C(NCCc1ccccc1)c1ccc2nnc(C3CC3)n2c1 |  | inconclusive: 89.1 µM [inhibitor, partial curve, poor fit] | 
4 | CCS(=O)(=O)c1ncc(CN(C)CCOc2ccc(C)cc2)n1Cc1ccccc1 |  | inconclusive: 50.1 µM [inhibitor, partial curve, poor fit] | 
5 | CC(=O)Nc1cccc(C(=O)NCCn2ccn3nc(-c4ccc(F)cc4)cc3c2=O)c1 |  | inconclusive: 50.1 µM [inhibitor, partial curve, poor fit] | 
6 | CC(C)CNC(=O)c1ccc2c(c1)C1(CCN(C)C1)CN2CC1CC1 (stereo not given) |  | inconclusive: 100 µM [inhibitor, single point] | 
7 | O=C(NCc1ccc(Cl)cc1)c1c[nH]c2ncccc12 |  | inconclusive: 56.2 µM [inhibitor, partial curve, poor fit] | 
8 | CC(C)CC(=O)N1C(C(=O)NCC2CCCO2)COC12CCC(C)CC2 (stereo not given) | inactive: -18.3% |  | 
9 | CC(C)CNC(=O)c1cc(C2CC2)nc2c1c(C1CCNC1)nn2C (stereo not given) | inactive: -2.37% |  | 
10 | COc1ccc(OC)c(CN2CCc3ncc(C(=O)Nc4ccccc4)n3CC2)c1 |  | inconclusive: 89.1 µM [inhibitor, partial curve] | 
11 | CC(C)COC(=O)N1C[C@@H](CO)[C@@H]2Oc3ccc(Cl)cc3[C@@H]21 |  | inconclusive: 56.2 µM [inhibitor, partial curve, poor fit] | 
12 | Cc1ncnc(N2CCC(Oc3ccc4ccccc4c3)(C(=O)O)CC2)c1C | inactive: -17.2% |  | 
13 | C[C@H]1[C@@H]2[C@@H](O)C([C@H](C)C(=O)N(C)Cc3ccccc3)CC[C@@]2(C)CC[C@@H]1NC(=O)Cc1ccccc1 (stereo not given in full) | inactive: -21.3% |  | 
14 | COC(=O)c1ccc2nc(CO[C@H]3CN(Cc4cccnc4)C[C@H]3F)[nH]c2c1 | inactive: -13.8% [at 174 µM] |  | 
15 | CC1=C[C@@H](CNC(=O)NC(C)C)[C@H](C(C)C)C[C@H]1Cc1nnc(-c2ccccc2F)o1 |  | active: 31.6 µM | 
16 | COc1ccc(-c2ccc(C(=O)NCc3cccc(C(F)(F)F)c3)c(Cl)c2)nn1 |  | inconclusive: 44.7 µM [inhibitor, partial curve, poor fit] | 
17 | COc1ccc(-c2n[nH]c3c2CC(=O)N(CC2CCOCC2)C3)cc1F |  | inconclusive: 4.47 µM [inhibitor, full curve, poor fit] | 
18 | COc1cc(CNC(=O)c2cnc3c(c2)N(c2ccccc2OC)CCC3)cc(OC)c1 |  | inconclusive: 89.1 µM [inhibitor, partial curve, poor fit] | 
19 | Cc1cc2nc3n(c(=O)c2n1CC(=O)Nc1ccc(F)c(F)c1)CCC3 |  | inconclusive: 70.8 µM [inhibitor, partial curve, poor fit] | 
20 | CC(C)(Oc1nn(CC2CCOCC2)c2ccccc12)C(=O)NC1CCC(O)CC1 (stereo not given) |  | inconclusive: 100 µM [inhibitor, single point] | 

Row | SMILES | activity change, negative = cytotoxicity | Potency | outcome
21 | CCn1c(C(=O)OC)c(NC(=O)C2CCOC2)c2cc(NC(C)Cc3ccccc3OC)cnc21 (stereo not given) |  |  | inactive
22 | COCC(=O)N[C@@H]1C=C[C@@H](c2c(C)nn(-c3ccc(C(C)(C)C)cc3)c2C)C1 |  | active: 22.4 µM | 
23 | COc1ccc(-c2cnc3n[nH]c(-c4ccccc4C)c3n2)cn1 |  | inconclusive: 39.8 µM [inhibitor, partial curve, poor fit] | 
24 | Cc1nc(NCc2cc(C3CC3)on2)cc(C2CC(O)C2)n1 (stereo not given) |  | inconclusive: 39.8 µM [inhibitor, partial curve] | 
25 | COCCN1Cc2[nH]nc(-c3cc(OC)ccc3OC)c2CC1=O |  | inconclusive: 8.91 µM [inhibitor, full curve, poor fit] | 
26 | CC(C)(C)c1ccc(NC(=O)O[C@@H]2CO[C@H]3[C@@H]2OC[C@@H]3Nc2nccc(-c3cccs3)n2)cc1 |  | inconclusive: 79.4 µM [inhibitor, partial curve, poor fit] | 
27 | COCCn1ccnc1C1CCN(C(=O)c2cccc(-n3cccn3)c2)CC1 | inactive: -8.68% |  | 
28 | COc1ccc(OC)c(CNC(=O)C2CCCCC(=O)N2)c1 (stereo not given) | inactive: -2.33% |  | 
29 | COc1ccc2cc(C3CN(CCC(=O)NC(C)(C)C)CCO3)ccc2c1 (stereo not given) |  | inconclusive: 44.7 µM [inhibitor, partial curve, poor fit] | 
30 | O=C(NCc1ccccc1F)c1cc(-c2ccc(Cl)cc2Cl)c2nncn2n1 |  | inconclusive: 50.1 µM [inhibitor, partial curve, poor fit] | 
31 | Cc1ccc(C)c(-c2cc3c(=O)n(CCNC(=O)c4ccc(C#N)cc4)ccn3n2)c1 |  | inconclusive: 11.2 µM [inhibitor, full curve] | 
32 | Cc1ccccc1-n1nc(C)c([C@H]2C=C[C@@H](OC(=O)NC(C)C)C2)c1C |  | active: 25.1 µM | 
33 | Cn1nccc1C(=O)N1CCC2(CC1)OC(=O)N(Cc1ccccc1)C2(C)c1ccccc1 (stereo not given) |  | inconclusive: 8.91 µM [inhibitor, full curve, poor fit] | 
34 | CC(C)NC(=O)C1CCCN(Cc2cccc(-c3ccc(F)cc3F)c2)C1 (stereo not given) |  | inconclusive: 50.1 µM [inhibitor, partial curve, poor fit] | 
35 | CC(C)NC(=O)CCC1CCN(C(=O)c2ccccc2F)CC1 |  |  | inactive
36 | COCC1CN(S(=O)(=O)c2ccc(F)c(C)c2)CC12CCNCC2 (stereo not given) | inactive: -16.3% |  | 
37 | COc1ccccc1Nc1ccnc(N2CCN(C(=O)N(C)C)CC2)n1 |  | inconclusive: 50.1 µM [inhibitor, single point] | 
38 | c1cc(-c2cc3c(ccn3Cc3ccncc3)c(N3CCOCC3)n2)c2[nH]ncc2c1 |  | inconclusive: 3.16 µM [inhibitor, full curve, poor fit] | 
39 | Cc1ccc(C2NC(=O)N(CC(=O)Nc3ccc(Br)cc3F)C3=C2C(=O)OC3)cc1 (stereo not given) |  | inconclusive: 35.5 µM [inhibitor, partial curve] | 
40 | Cn1ccnc1C(=O)N1CCC(Cc2ccc(CCC(=O)N3CCCC3)cc2)CC1 |  | inconclusive: 44.7 µM [inhibitor, partial curve, poor fit] | 
